A short description of the data set: soluble fraction after stress (log2 fold change); higher = more stays soluble; pooled small domains, quantitative proteomics. The note with it: stress: 75 degC.
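Note: 20 min heating vs room temperature control held 20 min.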

For the sequence “HMSDMGRDEAYEILGLARDSSEAEIREAHKKLMINNHPDHGGSAYLATKINRARDVLLDELNFF”, the “soluble fraction (log2)” value was -0.0681.
On to “HMNNAVITINNLVKRFPVGGDFFTALKDIDLTLNKGEFTGLIGPSGSGKTTLLNIIGGLDSPTEGQVSV”, for which the “soluble fraction (log2)” value is -0.0956.
The value for “HMLSQEALEFVRSLVDRPMVIFTTAYSEYAVEGFKLDAVDYLLKPFSFADFSRSAGKANSLYELRHN” was -0.533; that for “HMDSLPEPIKRLLNVLGDKKLSAAEIMEQLGLSHRATFRKNYLNPALELGLIEMTIPDKPNSRNQKYIKKQ” was -0.201.
Turning to “HMSDYYQDLGVERSATPEEIKRAYRRLARQLHPDVNPGAEAEEQFKTVSRAYEVLSDADKRRNYDLGVDP”, the “soluble fraction (log2)” value came to 0.116.
The value for “HMQFGLDQVAHQRAHTLSGGMQRRLSIAMGLITNPKILFLDEPTVGLDVLARHELWHTLTALK” was 0.221; that for “HMGPSEPVIVKWFNRLKGYGFVTRPDGEADIFVHMETVRRAGLAELMPGQTLHARITEGQKGPLVVALGE” was -1.71; that for “HMKMVEGKVKWFNDSKGFGFIEQDGGKDVFVHHSAIQAEGFKSLAEGERVSFDVVAGPKGPAAANVRK” was -0.472.
As to “HMETLAWADTAQNGLDRLVAAQPILVRISAAKRLRDAAEQIARSAGVATVEIEHVQHASDSLQFGDA”, the “soluble fraction (log2)” value is -0.253.
Consider “HMVSSEQHYTVLGITKQATDTEVKKAYRKMAVKYHPDKLQGVSEDIKKLSEEKFLKVKEAYEQIMKGR”, for which the “soluble fraction (log2)” value is -0.296.
